According to publication PMC6008652:
Residue numbers refer to the chain shown, from its start. Names and notes keep the numbering of the source. Results are given in words; binding and its absence hold for the method and conditions named. For some of these results: In cells and extracts the contact can be indirect. Some binding calls cover weakened binding; strength is not graded here. For some of these results: Sequences can lack the tags named with a protein.

Legend:
[1] = biological target: T1, IQM4ΔC (truncated IQM4, amino acid residues 1-160) (Arabidopsis thaliana) (UniProt O64851); experiment: far-Western, overlay or dot blot; CaM gel overlay: 50 µg protein from induced E. coli with pET32a-IQM4ΔC separated by SDS-PAGE, transferred to nitrocellulose, probed with biotinylated CaM5 in the presence of 1 mM CaCl2; only the binder purified
T1 sequence: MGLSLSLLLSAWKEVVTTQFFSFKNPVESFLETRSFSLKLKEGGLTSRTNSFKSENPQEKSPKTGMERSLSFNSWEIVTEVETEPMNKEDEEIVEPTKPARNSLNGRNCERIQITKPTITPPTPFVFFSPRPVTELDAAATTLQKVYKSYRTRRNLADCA

[2] = biological target: T1, IQM4ΔC (truncated IQM4, amino acid residues 1-160) (Arabidopsis thaliana); experiment: far-Western, overlay or dot blot; CaM gel overlay: 50 µg protein from induced E. coli with pET32a-IQM4ΔC separated by SDS-PAGE, transferred to nitrocellulose, probed with biotinylated CaM5 in the presence of 5 mM EGTA; only the binder purified
[3] = biological target: BD-CaM5 (Arabidopsis calmodulin 5, full length ORF fused with the Gal4 DNA binding domain) (Arabidopsis thaliana) (UniProt Q682T9); experiment: two-hybrid; Matchmaker Gal4 system, yeast strain AH109; bait in pGBKT7, prey in pGADT7; growth on SD-4 (lacking Leu, Trp, His, Ade), 5-7 days at 30°C
[4] = biological target: cEYFP-CaM5 (full-length CaM5 fused to the C-terminus of cEYFP) (Arabidopsis thaliana) (UniProt Q682T9); experiment: split reporter; BiFC in Arabidopsis mesophyll protoplasts, 18 h at 23°C in the dark, confocal laser scanning microscopy
[5] = biological target: cEYFP-CaM5 (full-length CaM5 fused to the C-terminus of cEYFP) (Arabidopsis thaliana) (UniProt Q682T9); experiment: split reporter; BiFC in onion epidermal cells, biolistic bombardment, overnight at 25°C in the dark, epifluorescence microscopy

Q: Which binding [1] does the source give for “biotinylated CaM5 (His-tagged calmodulin 5 labeled with biotin) (from UniProt Q682T9 1-149)” here?
A: Its binding is “binds”.

Q: And the binding [2]?
A: Its binding is “binds”.

B1: AD-IQM4 (Arabidopsis thaliana IQM4, full length ORF fused with the Gal4 activation domain) (protein, UniProt O64851 1-532)
chain: MGLSLSLLLSAWKEVVTTQFFSFKNPVESFLETRSFSLKLKEGGLTSRTNSFKSENPQEKSPKTGMERSLSFNSWEIVTEVETEPMNKEDEEIVEPTKPARNSLNGRNCERIQITKPTITPPTPFVFFSPRPVTELDAAATTLQKVYKSYRTRRNLADCAVVVEELWWKTLDAAALNLSSVAFFEEEKHETAVSKWARARTRAAKVGKGLSKDEKAQKLALQHWLEAIDPRHRYGHNLHFYYDVWSASMSAQPFFYWLDIGDGKDVNLEHHPRSVLQKQCIKYLGPLEREAYEVIVEDGKLMNKQSMTLINSTEDSKSIFVLSTTRTLYVGQKKKGRFQHSSFLSGGATTAAGRLVAREGILEAIWPYSGHYLPTEDNFNEFISFLEENNVDMTNVKRCSVNEEYSSFNSSGYEEEATKEEEAEKKPAETIVTEEQEEEKERERPVFQLAKRLSCKWNSGVGPRIGCVRDYPMELQSQAFEQVSLSPRISPGSTRFPSPYGPIPSPRPSPRVRVSPRLAYMGIPSPRVQVNC
Q: With B1 as the molecule, how does the binding [3] read?
A: Its binding is “binds”.

B2: nEYFP-IQM4 (full-length IQM4 fused to the C-terminus of nEYFP) (protein, UniProt O64851 1-532)
chain: B1 chain
Q: For B2, which binding [4] is on record?
A: The binding was “binds”.

Q: What about the binding [5] of the same molecule?
A: Its binding is “binds”.

B3: AD-IQM4^Δ143-144 (IQM4 with deletions of Leu143 and Gln144) (protein, UniProt O64851 1-532)
chain: MGLSLSLLLSAWKEVVTTQFFSFKNPVESFLETRSFSLKLKEGGLTSRTNSFKSENPQEKSPKTGMERSLSFNSWEIVTEVETEPMNKEDEEIVEPTKPARNSLNGRNCERIQITKPTITPPTPFVFFSPRPVTELDAAATTKVYKSYRTRRNLADCAVVVEELWWKTLDAAALNLSSVAFFEEEKHETAVSKWARARTRAAKVGKGLSKDEKAQKLALQHWLEAIDPRHRYGHNLHFYYDVWSASMSAQPFFYWLDIGDGKDVNLEHHPRSVLQKQCIKYLGPLEREAYEVIVEDGKLMNKQSMTLINSTEDSKSIFVLSTTRTLYVGQKKKGRFQHSSFLSGGATTAAGRLVAREGILEAIWPYSGHYLPTEDNFNEFISFLEENNVDMTNVKRCSVNEEYSSFNSSGYEEEATKEEEAEKKPAETIVTEEQEEEKERERPVFQLAKRLSCKWNSGVGPRIGCVRDYPMELQSQAFEQVSLSPRISPGSTRFPSPYGPIPSPRPSPRVRVSPRLAYMGIPSPRVQVNC
Q: How did the binding [3] turn out when B3 was run?
A: Its binding is “no binding”.

B4: AD-IQM4^L143N (IQM4 with Leu143 substituted by Asn) (protein, UniProt O64851 1-532)
chain: B1 chain with L143N
Q: B4 was tested. Which binding [3] did it give?
A: The binding was “no binding”.
